Source: PubChem BioAssay AID1963576 (National Center for Advancing Translational Sciences (NCATS), 2024)
Hit rate of the full screen: of about 46,000 compounds, about 60 (0.1%) were called active. Roughly 3% stayed inconclusive and do not appear here. The call rests on the fitted dose curve; in most records, active means well fitted inhibition curve with a large enough effect; inconclusive means small, poorly fitted or top-dose-only effect; inactive means no such curve, though single readings can be large or run the other way. Some of the results follow.

assay: Primary qHTS assay for Inhibitors of ovarian cancer metastasis using an organotypic tumor microenvironment (TME) model.; further: nearly all actives have a fitted effect of over 65% in size;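 on activity change, negative = inhibition: plate controls were DMSO wells for no effect and tomatine positive control wells for full effect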; details: SKOV3ip1-GFP adhesion/invasion on 3D omental model, fluorescence; series mostly up to 45.8 µM; activity change, negative = inhibition: at the top concentration
Outline: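 A 3D layer of primary human omental fibroblasts, mesothelial cells, fibronectin and collagen I, grown 48 hr, received SKOV3ip1-GFP cells in serum-free medium plus compounds at 0.36-46 umol/L. After 2 hr RT and 16 hr 37 C, fixed adherent GFP cells were counted; normalized to DMSO and tomatine.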

outcome, inactive:
CCOc1ccc(-c2c(C)nn3c(C)c(C(=O)NCC(C)c4ccccc4)cnc23)cc1OCC (centres undefined), O=C(Nc1ccccc1C(F)(F)F)c1noc2c1CCCCC2, CC(C)NC(=O)c1cc2c(Cl)nc3ccccc3c2s1, CCC(=O)N1CCc2cc(S(=O)(=O)CCC(=O)NCc3ccc(F)cc3)ccc21, COc1cccc(CNC(=O)Cn2c(=O)oc3cc(S(=O)(=O)N4CCC(C)CC4)ccc32)c1, Cc1ccc(-n2nc3c(=O)n(C(C)C(=O)O)nc(C)c3c2C)cc1 (centres undefined), Cc1ccc(Cl)cc1NC(=O)Cn1c(=O)n(CCC(=O)N2CCc3ccccc3C2)c(=O)c2ccccc21, CCOc1ccc(NC(=O)Cn2cc(C(=O)c3ccc(C)c(C)c3)c(=O)c3cc(F)ccc32)cc1, Cc1cc(O)c(C(=O)c2cnc3c(c2)COc2ccccc2-3)cc1Cl, Cc1ccc(CNC(=O)c2ccc3c(c2)N(Cc2cccc(Cl)c2)C(=O)CS3)cc1, COc1ccc(OC)c(-c2noc(N3CCN(c4cc(Cl)ccc4C)CC3)n2)c1, COc1ccc(C2c3c(-c4ccccc4O)n[nH]c3C(=O)N2CCc2ccccc2)cc1 (centres undefined), COC(=O)c1ccc(Cl)cc1NC(=O)Nc1nnc(N(C)Cc2ccccc2)s1, COc1ccccc1NC(=O)CN1CCN(CC(=O)Nc2ccc(F)c(F)c2)CC1, O=S(=O)(Nc1cccc(-c2ccc(N3CCOCC3)nn2)c1)c1cc(C(F)(F)F)ccc1Cl, CNS(=O)(=O)c1cn(CC(=O)N2CCN(c3ccc(C)cc3C)CC2)cc1S(=O)(=O)NC, Cc1cn2c(=O)cc(COc3cccc(NC(=O)c4ccccc4Cl)c3)nc2s1, COc1cccc(-c2cc(C(=O)Nc3ccc4c(c3)OCO4)no2)c1, COc1ccc(-c2cc3nc(C)c(CCC(=O)Nc4ccc(F)cc4F)c(C)n3n2)c(OC)c1, COc1ccc(/C=C/C(=O)N2CCC(c3nc4ccccc4o3)CC2)cc1, COc1ccc(NC(=O)CSc2ccc(-c3cccs3)nn2)cc1, COc1cccc(NC(=O)CN2C(=O)COc3ccc(S(=O)(=O)N4CCCCCC4)cc32)c1, COC(=O)Cc1c(C)c2cc3c(c(C)c2oc1=O)OCN(CCc1ccc(F)cc1)C3, CCc1ccc(NC(=O)CC2C(=O)N(c3ccc(C)cc3)C(=O)N2CCc2ccncc2)cc1 (centres undefined), Cc1cccc(NC(=O)CSc2cn(CC(=O)N3CCCC3)c3ccccc23)c1C

Activity change, negative = inhibition, inactive:
Cc1ccc(-n2nc(CO)c(C(=O)NCCc3ccccc3)n2)cc1C -4.18%, CCc1ccc(N2C(=O)CS(=O)(=O)C23C(=O)N(Cc2ccccc2)c2ccccc23)cc1 (centres undefined) 6.21%, COc1cc(-c2noc(-c3nnn(-c4ccc(Cl)cc4)c3C)n2)cc(OC)c1OC -8.64%, CC(=O)c1ccc(NC(=O)C2CCCN(S(=O)(=O)c3cn(C)cn3)C2)cc1 (centres undefined) 0.0512%, CCc1cccc(C)c1Nc1c(-c2ccc(N3CCOCC3)cc2)nc2ncccn12 1.14%, CCCc1nn(C)c2c(=O)[nH]c(-c3cc(S(=O)(=O)N4CCN(C)CC4)ccc3OCC)nc12 -10.6%, COc1ccc(-n2nc3c(c2NC(=O)C(=O)N2CCN(C)CC2)CSC3)cc1 -0.467%, O=C(Cn1c(=O)n(-c2ccc(F)cc2)c(=O)c2sccc21)Nc1cccc(C(F)(F)F)c1 -4.61%, Cc1cc(C)cc(OCC(=O)Nc2cccc(-c3nc4ccccc4[nH]3)c2)c1 -28.7%, CCOC(=O)c1cc2c(=O)n3ccccc3nc2n(Cc2ccco2)c1=NC(=O)c1ccccc1OC 6.91%, Cc1c2cnn(CC(=O)Nc3ccc(F)cc3F)c(=O)c2c(C)n1Cc1cccc(Cl)c1 9.7%, CN(C[C@@H]1COCCO1)S(=O)(=O)Nc1ccc2ccc3ncc(-c4cnn(C)c4)cc3c(=O)c2c1 26.9%, CCOc1ccc2nc(N3CCCC(C(=O)NCCc4ccc(SC)cc4)C3)sc2c1 (centres undefined) 39.7%, COc1cc(NC(=O)CSc2nc3nc(C)c(Cc4ccccc4)c(C)n3n2)cc(OC)c1 -3.46%, Cc1ccc(C)c(NC(=O)CSc2nnc(C)n3c2cc2occc23)c1 -7%, Cn1c(=O)c2sccc2n2c(CCC(=O)Nc3ccc(F)cc3)nnc12 -4.61%, COc1cccc(C(=O)c2sc(Nc3ccc(F)c(Cl)c3)nc2N)c1 -7.28%, Cc1cc(C)cc(NC(=O)C(=O)NCC(c2cccnc2)N2CCc3ccccc32)c1 (centres undefined) 11.5%, CCOC(=O)c1ccc(CN(Cc2ccc(Br)cc2)S(=O)(=O)c2cccc(C(F)(F)F)c2)cc1 -5.1%, COc1ccc2c(c1)c(=O)c(C(=O)c1ccc(C)cc1)cn2Cc1ccccc1F 1.86%, CCC(C(=O)OC)n1nnc2sc(-c3ccccc3)cc2c1=O (centres undefined) 2.07%, CCCCN(CC)CCNc1ncnc2onc(-c3ccc(Cl)cc3)c12 -14.9%, O=C(CN1C(=O)C2CCCCN2c2ccc(C(=O)N3CCCC3)cc21)NCc1ccccc1F (centres undefined) 6.11%, CN(c1ccccc1)C(CNS(=O)(=O)c1ccccc1)c1ccccc1 (centres undefined) -7.01%, O=C(COc1ccccc1Cl)Nc1ccccc1OCc1cc(=O)n2ccccc2n1 3.47%, Cc1ccc(N2C(=O)CS(=O)(=O)C23C(=O)N(Cc2ccccc2F)c2ccccc23)cc1Cl (centres undefined) -7.77%, CCCCS(=N)(=O)CCC(N)C(=O)O (centres undefined) 23.5%, COC(=O)c1sccc1S(=O)(=O)N(CC(=O)NCc1ccc(F)cc1)c1ccc(C)c(C)c1 -1.32%, CNS(=O)(=O)c1cn(CC(=O)Nc2cccc(C(F)(F)F)c2)cc1S(=O)(=O)NC -4.96%, Cc1ccc(CN(Cc2ccco2)C(=O)c2cccc(C)c2)cc1 -7.63%, Cc1cccc(NC(=O)NC2COc3ccccc3C2)c1C (centres undefined) 5.01%, COc1ccc(Cc2nnc(C(=O)NCCCN3CCN(c4ccccc4F)CC3)o2)cc1OC 17.5%, CC(C)COc1ccc(Nc2ncnc3ccc(Br)cc23)cc1 -10.5%, COc1ccc(CNc2nc(-c3ccco3)nn2C(=O)CC(C)C)cc1 7.39%, COc1ccc(C2Sc3ccccc3N(CCN(C)C)C(=O)C2OC(C)=O)cc1 (centres undefined) -5.16%, Cc1cc(S(=O)(=O)n2ccnc2C(C)C)cc([N+](=O)[O-])c1C 0.627%, CCCNc1ccc(-c2nc(-c3ccco3)no2)cc1[N+](=O)[O-] 1.15%, CCc1ccc(CNC(=O)C(CC)n2nc(C)c3c(C)n(-c4ccccc4)nc3c2=O)cc1 (centres undefined) -26%, O=C(Nc1cc(C(F)(F)F)ccc1Cl)c1ccc2c(c1)CCN2S(=O)(=O)c1ccccc1 -6.53%, CCOC(=O)c1nc(Nc2ccc(Cl)cc2)c2c(C)noc2n1 1.64%, Cc1ccc(Cl)cc1N1CCN(C(=O)c2cn(CC(C)C)c(=O)c3c2c2ccccc2n3C)CC1 5.22%, Cc1ccc(CCNC(=O)c2ccc(CNS(=O)(=O)c3ccc(C)cc3)cc2)cc1 -8.24%, Cc1cc(C)c(Cn2c(=O)n(-c3ccccc3Cl)c(=O)c3c(C)c(C(=O)N(C)C)sc32)c(C)c1 2.63%, CC(=O)c1c(C)oc2ccc(NS(=O)(=O)c3ccc(C(C)C)cc3)cc12 -2.02%, COc1cccc(N2CC(NC(=O)C3CCCCC3)CC2=O)c1 (centres undefined) -0.276%, COc1ccc(N2CCN(C(=O)c3ccc4c(c3)N(Cc3cc(C)ccc3C)C(=O)c3ccccc3S4=O)CC2)cc1 (centres undefined) 8.13%, CCC(C)(C)C(=O)O[C@H]1C[C@@H](C)C=C2C=C[C@H](C)[C@H](CC[C@@H]3C[C@@H](O)CC(=O)O3)[C@H]21 2.69%, Cc1ccc(Oc2nc3c(c(=O)n(Cc4ccccc4Cl)c(=O)n3C)n2C)cc1C -0.922%, Cc1ccccc1C(=O)Nc1cccc(-c2cn3cccnc3n2)c1 4.54%, COc1ccc(C(=O)Nc2nnc(S(=O)(=O)N3CCN(c4ccc(C)cc4)CC3)s2)cc1 8.52%, CC(Oc1ccccc1)C(=O)Nc1nnc(S(=O)(=O)N2CCCCCC2)s1 (centres undefined) 3.02%, COC(=O)c1ccc(NC(=O)N2CCC(CN3CCc4ccccc4C3)CC2)cc1 -4.76%, CCOc1ccc(C(=O)Nc2ccc(C(=O)OCc3cc(=O)n4nc(CC)sc4n3)cc2)cc1 8.61%, CCOc1ccc(-c2c(C)nn3c(-c4ccccc4)c(C(=O)NCCOC)cnc23)cc1OCC -1.62%, O=C(COc1ccc2oc3c(c2c1)CCCC3)Nc1ccc(Cl)cc1 -1.19%, COc1cccc(C(=O)Nc2cc(-c3ccccc3)nn2-c2ccccc2)c1 -6.56%, Cc1ccc(S(=O)(=O)N2CCCc3cc(NC(=O)c4ccc(F)c(F)c4)ccc32)cc1 -0.82%, CCOC(=O)c1ccc(NS(=O)(=O)c2cn(C)c(C)n2)cc1 33.8%, CCS(=O)(=O)c1nc(S(=O)(=O)c2ccc(C)cc2)c(NCc2ccc(Cl)cc2)s1 -8.79%, CN(C)C(=O)COC(=O)Cc1ccc(OC(=O)c2ccc(N=C(N)N)cc2)cc1 8.03%, CCOc1ccc(N(CC)S(=O)(=O)N2CCCC(C(=O)Nc3ccc(NC(C)=O)cc3)C2)cc1 (centres undefined) -29.8%, O=C1C2=C(Nc3ccccc3SC2c2ccc(Cl)c(Cl)c2)c2ccccc21 (centres undefined) -24.9%, COc1cccc(N2C(=O)C(CC(=O)Nc3ccc(F)cc3)N(CCC3=CCCCC3)C2=O)c1 (centres undefined) -13.1%, COc1ccc(NC(=O)N(C(C)C)C2CCN(C(C)=O)CC2)c(OC)c1 -4.41%, Cc1ccc(CCNC(=O)c2cc3cc4cc(C)ccc4nc3s2)cc1 -10.9%, COc1ccccc1Cn1c(CNS(=O)(=O)c2ccc(CC(C)C)cc2)nc2cccnc21 2.62%, CN(C)S(=O)(=O)N1CCC(n2cnc3cccnc32)CC1 -3.8%, CCOc1ccc(NC(=O)Cn2cc(C(=O)c3ccc(OCC)cc3)c(=O)c3cc4c(cc32)OCCO4)cc1 -25.8%, CC(=O)N1CCCc2cc(S(=O)(=O)N3CCCC(C(=O)NCc4ccccc4)C3)ccc21 (centres undefined) 14.1%
